Hit rate of the full screen: of about 370,000 compounds, about 150 (0.041%) were called active. Inconclusive means that the source gave no clear call. Such entries were picked first, then a sample of the others. The call rests on the fitted dose curve; in most records, active means well fitted inhibition curve with a large enough effect; inconclusive means small, poorly fitted or top-dose-only effect; inactive means flat fitted curve, though single readings scatter. Potencies of inconclusive entries are left out as doubtful fits.
These molecules were tested against Beta-lactamase (Escherichia coli (strain K12)) (UniProt P00811) (assay: qHTS Inhibitors of AmpC Beta-Lactamase (assay with detergent)). Settings: AmpC hydrolysis of nitrocefin, absorbance 480 nm, 0.01% Triton; activity change, negative = inhibition: at 114 µM (top of the series).
In short: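 20 mM phosphate pH 7.0 + 0.01% (detergent screen) or 0.0001% Triton X-100; 5.3 nM AmpC reagent; cpd preinc 15 min RT; nitrocefin (800 uM stock) to start; A480 q20 s × 4 min; Activity was normalised to no-enzyme and no-compound control wells.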
Further: nearly all actives have a fitted effect of over 25% in size.
Potency means the concentration at half of the fitted maximal effect; tags describe the fitted curve by direction and shape.
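Wherever activity change, negative = inhibition is given: 0% = no-compound wells and -100% = no-enzyme wells.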

Chain of UniProt P00811 (P00811 whole entry, looked up): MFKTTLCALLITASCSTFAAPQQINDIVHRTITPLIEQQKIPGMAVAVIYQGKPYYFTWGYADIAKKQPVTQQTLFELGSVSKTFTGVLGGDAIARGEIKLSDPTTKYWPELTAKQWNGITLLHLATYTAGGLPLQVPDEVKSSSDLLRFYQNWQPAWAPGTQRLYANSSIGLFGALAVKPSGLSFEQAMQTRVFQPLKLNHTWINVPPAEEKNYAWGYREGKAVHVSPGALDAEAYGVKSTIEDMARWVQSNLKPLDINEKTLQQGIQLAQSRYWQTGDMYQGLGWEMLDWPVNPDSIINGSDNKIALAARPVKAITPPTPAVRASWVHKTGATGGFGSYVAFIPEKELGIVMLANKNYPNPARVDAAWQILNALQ

Structure (SMILES)	Potency	activity change, negative = inhibition
Cc1nc(-c2cccc(NS(=O)(=O)c3cccc4ccccc34)c2)cs1	inconclusive [inhibitor, full curve]	
CCC(CC)C(=O)Nc1ccc([N+](=O)[O-])cn1		inactive: 3.22%
COc1cccc(-c2ccc(NC(=O)C3CCCN(Cc4cc(C)[nH]n4)C3)cc2)c1 (configuration not stated)		inactive: -10.6%
Cc1c(Nc2nc(-c3ccc(Cl)cc3)cs2)c(=O)n(-c2ccccc2)n1C	inconclusive [inhibitor, partial curve]	
O=C(COC(=O)c1cc(Br)ccc1O)NNC(=O)c1ccc(Cl)cc1	inconclusive [inhibitor, full curve, poor fit]	
Cc1nc2sccn2c(=O)c1S(=O)(=O)Nc1ccc(N2CCN(S(C)(=O)=O)CC2)cc1	inconclusive [inhibitor, partial curve]	
O=C(O)C1CCCCN1S(=O)(=O)c1ccc2ccccc2c1 (configuration not stated)	inconclusive [inhibitor, single point]	
Fc1ccc(Oc2nc(-c3ccccn3)nc3ccccc23)cc1		inactive: 6.36%
O=C(NNc1nc2ccccc2s1)Nc1ccc(F)cc1		inactive: -7.94%
Cc1cc(NS(=O)(=O)c2ccc(NC(=S)NC(=O)c3cccc(S(=O)(=O)N(C)C)c3)cc2)no1	inconclusive [inhibitor, full curve, poor fit]	
COc1cc(CN2CCC(C(=O)NCC(C)(C)CN(C)C)CC2)ccc1OCc1ccccc1	inconclusive [inhibitor, partial curve, poor fit]	
O=C(NCc1ccccc1)C1=C[C@H](C2CCCCC2)C[C@H](OCc2ccc(CO)cc2)O1		inactive: -3.24%
CC(C)CC(=O)NC(=S)Nc1ccc(S(=O)(=O)Nc2nccs2)cc1	inconclusive [inhibitor, partial curve]	
COc1ccc(C2(C)NC(=O)N(CC(=O)c3cc(C)n(C4CC4)c3C)C2=O)cc1 (configuration not stated)		inactive: 0.549%
COc1ccccc1Cn1c(CNS(=O)(=O)c2ccc3c(c2)CCCC3)nc2cccnc21		inactive: 2.26%
CCC[C@H]1COCCS(=O)(=O)N1Cc1ccccc1F	inconclusive [inhibitor, partial curve]	
Cc1ccc(OC(C)C(=O)N2CC(=O)Nc3ccccc32)cc1 (configuration not stated)	inconclusive [inhibitor, partial curve, poor fit]	
Fc1ccc(Nc2nc3nonc3nc2Nc2cccc(C(F)(F)F)c2)cc1		inactive: 21.3%
CCc1nc2oc3ccccc3c(=O)c2c(=O)n1Cc1ccc(OC)cc1	inconclusive [inhibitor, full curve, poor fit]	
COc1ccc(CNc2ncnc3c2[nH]c2ccccc23)cc1		inactive: 5.07%
Cn1cccc1/C=C(\C#N)c1ccccc1		inactive: 6.01%

Structure (SMILES)	Potency	activity change, negative = inhibition
COc1ccc2cc(CCNC(=O)c3c(-c4ccccc4Cl)noc3C)c(=O)[nH]c2c1	inconclusive [inhibitor, partial curve]	
COc1ccc2nc3oc(C(=O)N4CCCCC4)cc3cc2c1	inconclusive [inhibitor, partial curve, poor fit]	
N#C/C(=C\c1cn[nH]c1-c1ccccc1)C(=O)NC1CCCCCC1	inconclusive [inhibitor, partial curve]	
CCCS(=O)(=O)N1CC(=O)N(c2ccccc2F)C(C)(C(=O)NC2CCCCCC2)C1 (configuration not stated)		inactive: 19.5%
COc1ccc2cc(C(C)C(=O)N3CCC(C(N)=O)CC3)ccc2c1 (configuration not stated)	inconclusive [inhibitor, partial curve, poor fit]	
COc1ccc(CCNC(=O)c2cc(C)nc3c2c(C)nn3-c2ccccc2)cc1OC		inactive: 17.3%
O=[N+]([O-])c1ccc(SCc2ccco2)cc1N1CCOCC1		inactive: -7.54%
C#CCOCCOCCOCCNc1nc(N2CCN(C(=O)[C@H]([C@@H](C)O)n3cc(CCCCN)nn3)CC2)nc(N2CCN(C(=O)[C@H]([C@@H](C)CC)n3cc(CCCN=C(N)N)nn3)CC2)n1	inconclusive [inhibitor, partial curve, poor fit]	
O=S(=O)(Nc1ccc(-n2cnnn2)cc1)c1cccc(F)c1	inconclusive [inhibitor, full curve, poor fit]	
O=C(OCc1cccc(C(F)(F)F)c1)c1cc([N+](=O)[O-])ccc1N1CCOCC1	inconclusive [inhibitor, single point]	
C/C(=N\Nc1ccc(Cl)cc1)c1c(O)cc(C)oc1=O	inconclusive [inhibitor, partial curve, poor fit]	
COc1ccc(S(=O)(=O)N(C)c2ccc(C(=O)Nc3cccnc3)cc2)cc1	inconclusive [inhibitor, partial curve, poor fit]	
Cc1ccccc1C(=O)NC(=S)NCc1ccccc1	inconclusive [inhibitor, full curve, poor fit]	
Cc1cc2oc(=O)cc(C)c2cc1NC(=O)CCC(=O)O	inconclusive [inhibitor, full curve, poor fit]	
CCCN1CCC(=O)N([C@H](CO)c2ccccc2)CC1	inconclusive [inhibitor, partial curve]	
CN1CCCC(C(=O)c2ccc(-c3ccccc3)cc2)C1 (configuration not stated)	inconclusive [inhibitor, full curve, poor fit]	
O=C(COC(=O)c1ccc(Cl)c(S(=O)(=O)N2CCc3ccccc3C2)c1)Nc1ncc(Cl)cc1Cl	inconclusive [inhibitor, full curve, poor fit]	
CCOc1cc(C#N)c(NC(=O)c2cccc(S(=O)(=O)N3CCOCC3)c2)cc1OCC	inconclusive [inhibitor, partial curve, poor fit]	
CC(C)=C1C2CCC1C1C(=O)N(c3ccc4c(c3)OCO4)C(=O)C21 (configuration not stated)		inactive: -1.75%
CC(=O)c1c(C)[nH]c(C(=O)OCC(=O)N(Cc2ccccc2)C(C)(C)C)c1C	inconclusive [inhibitor, full curve, poor fit]	
O=C(CSc1ncccn1)N1CCCc2ccccc21		inactive: 9.26%
